Assay results as given in PMC4336329 (PLoS ONE, 2015).
Hit rate of the full screen: of about 310,000 compounds, about 14,000 (4.5%) showed an effect of 50% or more. The effect is printed as a negative number. The list shows a part of the results. Where a SMILES comes first, the peptide text is derived from it. The star is where a group is joined. OBn = c1ccc(CO*)cc1
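Also: peak tail current of the secondary pulse compared with the same well before compound.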

The compounds below were run against human ether-à-go-go-related gene (hERG) potassium channel (human, UniProt Q12809) (assay: primary screen, population patch clamp on CHO cells stably expressing hERG).
human ether-à-go-go-related gene (hERG) potassium channel, sequence (Q12809 whole entry, looked up): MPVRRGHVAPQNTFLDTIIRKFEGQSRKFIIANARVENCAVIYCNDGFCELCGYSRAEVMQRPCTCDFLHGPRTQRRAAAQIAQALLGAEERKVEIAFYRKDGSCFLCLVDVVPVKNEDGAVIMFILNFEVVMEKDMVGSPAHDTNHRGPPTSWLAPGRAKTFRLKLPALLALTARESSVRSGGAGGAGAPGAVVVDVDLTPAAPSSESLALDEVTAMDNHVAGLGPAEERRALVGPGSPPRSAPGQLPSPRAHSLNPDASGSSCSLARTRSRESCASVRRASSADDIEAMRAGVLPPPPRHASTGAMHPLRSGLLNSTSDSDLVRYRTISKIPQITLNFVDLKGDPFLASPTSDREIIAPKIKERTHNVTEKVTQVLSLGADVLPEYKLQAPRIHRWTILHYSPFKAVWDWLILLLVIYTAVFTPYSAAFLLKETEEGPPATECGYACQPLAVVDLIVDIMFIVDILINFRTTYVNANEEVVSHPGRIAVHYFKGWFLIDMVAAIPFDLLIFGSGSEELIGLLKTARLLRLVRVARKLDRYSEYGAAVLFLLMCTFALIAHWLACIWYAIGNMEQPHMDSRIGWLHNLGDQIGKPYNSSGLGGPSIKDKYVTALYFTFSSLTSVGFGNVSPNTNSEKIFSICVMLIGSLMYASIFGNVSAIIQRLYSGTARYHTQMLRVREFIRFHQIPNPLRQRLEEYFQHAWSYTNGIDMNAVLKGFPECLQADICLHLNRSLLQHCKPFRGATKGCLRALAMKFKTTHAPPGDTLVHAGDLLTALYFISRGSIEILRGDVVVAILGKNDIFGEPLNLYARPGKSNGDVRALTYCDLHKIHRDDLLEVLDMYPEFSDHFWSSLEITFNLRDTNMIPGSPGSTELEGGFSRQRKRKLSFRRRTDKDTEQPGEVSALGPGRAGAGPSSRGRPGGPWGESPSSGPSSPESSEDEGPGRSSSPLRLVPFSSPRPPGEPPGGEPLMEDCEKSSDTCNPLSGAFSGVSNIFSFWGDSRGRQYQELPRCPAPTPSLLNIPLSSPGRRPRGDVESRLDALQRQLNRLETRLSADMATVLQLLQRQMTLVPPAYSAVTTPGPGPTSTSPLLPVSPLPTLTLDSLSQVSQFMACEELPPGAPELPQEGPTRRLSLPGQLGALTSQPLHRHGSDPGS
With `O=C1N2CCSC2=NC1(NS(=O)(=O)c1ccccc1)C(F)(F)F` (stereo not drawn) the “hERG current change (%, negative = inhibition) at 10uM” value was 8.63%.
With `Cc1c(Br)c([N+](=O)[O-])nn1C(C)C(=O)Nc1c(C)n(C)n(-c2ccccc2)c1=O` (stereo not drawn) the “hERG current change (%, negative = inhibition) at 10uM” value was -12.8%.
With `O=C(Nc1cccc(-c2csc(-c3ccccc3)n2)c1)c1cccs1` the “hERG current change (%, negative = inhibition) at 10uM” value was 6.76%.
For `COCCNC(=O)c1sc2ncn(CC(=O)Nc3ccc(C)c(Cl)c3)c(=O)c2c1C`, the “hERG current change (%, negative = inhibition) at 10uM” value was 10.5%.
For `CCCOc1ccc(C(=O)NCC(c2ccco2)N(C)C)cc1OC` (stereo not drawn), the “hERG current change (%, negative = inhibition) at 10uM” value was -8.42%.
In the case of `COc1ccccc1NC(=O)C1CCN(C(=O)c2ccco2)CC1`, the “hERG current change (%, negative = inhibition) at 10uM” value is reported as 11.3%.
With `Cc1ccccc1Cn1nc(C)c(NC(=O)c2noc3c2CC(C(C)(C)C)CC3)c1C` (stereo not drawn) the “hERG current change (%, negative = inhibition) at 10uM” value was 6.8%.
For `C#CCOCCOCCOCCNc1nc(N2CCN(C(=O)C([C@@H](C)CC)n3cc(C(N)CC(C)C)nn3)CC2)nc(N2CCN(C(=O)[C@H](CCC(=O)O)n3cc(C(N)[C@H](C)CC)nn3)CC2)n1.Cl` (stereo partly drawn), the “hERG current change (%, negative = inhibition) at 10uM” value was 18.5%.
`Cc1cc2ncn(CCOc3ccccc3C#N)c2cc1C` was tested, and the “hERG current change (%, negative = inhibition) at 10uM” value was -22.6%.
With `CCC(C)C(NC(=O)C(N)CC(C)C)C(=O)NC(CCC(=O)OCc1ccccc1)C(N)=O.Cl` (stereo not drawn) (H-Leu-Ile-Glu(OBn)-NH2; configuration not given here) the “hERG current change (%, negative = inhibition) at 10uM” value was 0.556%.
`Cc1cc([N+](=O)[O-])ccc1NCc1ccc2ccccc2c1` was tested, and the “hERG current change (%, negative = inhibition) at 10uM” value was 9.83%.
With `COc1ccc(Cl)cc1N1CC(C(=O)Nc2nccs2)CC1=O` (stereo not drawn) the “hERG current change (%, negative = inhibition) at 10uM” value was -6.03%.
`Cc1[nH]n(-c2ccccc2)c(=O)c1S(=O)(=O)c1ccccc1` was tested, and the “hERG current change (%, negative = inhibition) at 10uM” value was -19.2%.
For `CCc1nc2ccccc2n1CC(=O)OCC(=O)N(CC(C)C)c1c(N)n(Cc2ccccc2)c(=O)[nH]c1=O`, the “hERG current change (%, negative = inhibition) at 10uM” value was 0.273%.
With `COc1ccc(C(CNC(=O)c2ccc(S(=O)(=O)Nc3ccccc3F)cc2)N(C)C)cc1` (stereo not drawn) the “hERG current change (%, negative = inhibition) at 10uM” value was 3.72%.
`Cc1ccc2c(COC(=O)c3c(C)noc3C)cc(=O)oc2c1` was tested, and the “hERG current change (%, negative = inhibition) at 10uM” value was 1.08%.
With `COc1ccc(-c2nsc(SCC(=O)NCc3ccc4c(c3)OCO4)n2)cc1` the “hERG current change (%, negative = inhibition) at 10uM” value was 17.4%.
In the case of `O=C(OCc1cc(=O)n2ccsc2n1)C1(c2ccc(Cl)cc2)CC1`, the “hERG current change (%, negative = inhibition) at 10uM” value is reported as -43.3%.
`O=C(c1ccc(OC2CCN(Cc3ccccn3)CC2)cc1)N1CCCCO1` was tested, and the “hERG current change (%, negative = inhibition) at 10uM” value was 5.45%.
For `CC(C)[C@H](NS(=O)(=O)/C=C/c1ccccc1)C(=O)OCC(=O)NC(N)=O`, the “hERG current change (%, negative = inhibition) at 10uM” value was 24.2%.
`CCn1c(C)[n+](CCOCC[n+]2c(C)n(CC)c3cc(Cl)c(Cl)cc32)c2cc(Cl)c(Cl)cc21.[I-]` was tested, and the “hERG current change (%, negative = inhibition) at 10uM” value was 6.82%.
For `O=C(NCCCn1ccnc1)c1ccncc1`, the “hERG current change (%, negative = inhibition) at 10uM” value was -6.4%.
In the case of `O=C(Cc1ccccc1[N+](=O)[O-])NC1CCN(Cc2ccccc2)CC1`, the “hERG current change (%, negative = inhibition) at 10uM” value is reported as -1.68%.
For `CCOc1ccc(N(C(=O)C2CCCO2)C2C=CS(=O)(=O)C2)cc1` (stereo not drawn), the “hERG current change (%, negative = inhibition) at 10uM” value was 13.3%.
In the case of `Cc1ccc(-c2nc3ccccc3c(=O)n2-c2ccc(Br)cn2)cc1`, the “hERG current change (%, negative = inhibition) at 10uM” value is reported as -18.7%.
For `Cc1ccc(-n2cc(CNCCCN3CCCC3=O)c(-c3ccc(F)cc3)n2)cc1`, the “hERG current change (%, negative = inhibition) at 10uM” value was -72.1%.
With `Cc1ccc(NC(=O)CCn2cnc3ccccc3c2=O)cc1Cl` the “hERG current change (%, negative = inhibition) at 10uM” value was -0.942%.
In the case of `O=C(NCc1nc(-c2ccc(C(F)(F)F)cc2)no1)Nc1ccc(F)cc1F`, the “hERG current change (%, negative = inhibition) at 10uM” value is reported as 11.5%.
`CCCCCn1c(C(Cc2ccccc2)NC(C)=O)nc2ccccc21` (stereo not drawn) was tested, and the “hERG current change (%, negative = inhibition) at 10uM” value was -15.5%.
For `COc1ccc(/C=N/NS(=O)(=O)c2ccc(C)cc2)cc1OC(=O)c1ccc(C)cc1`, the “hERG current change (%, negative = inhibition) at 10uM” value was 18.2%.
For `CC(Sc1nnc(-c2ccccc2F)n1C)C(=O)NC1CCCCC1` (stereo not drawn), the “hERG current change (%, negative = inhibition) at 10uM” value was -1.88%.
`Cc1cc2c(cc1S(=O)(=O)N1CCCCC1)OCC(=O)N2` was tested, and the “hERG current change (%, negative = inhibition) at 10uM” value was 1.14%.
`CCSP1(=S)N=C(N2CCOCC2)C(C#N)=C2CCCN21` (stereo not drawn) was tested, and the “hERG current change (%, negative = inhibition) at 10uM” value was -8.29%.
`CCOCCCNC(=O)c1cc2c(=O)n3cccc(C)c3nc2s1` was tested, and the “hERG current change (%, negative = inhibition) at 10uM” value was 12.6%.
With `CC(=O)Nc1ccc(S(=O)(=O)Oc2cccc(N3C(=O)C4CCCCC4C3=O)c2)cc1` (stereo not drawn) the “hERG current change (%, negative = inhibition) at 10uM” value was -15.3%.
For `CC(=O)Nc1cccc(NC(=O)CSc2nn3c(=O)c(C)nnc3s2)c1`, the “hERG current change (%, negative = inhibition) at 10uM” value was 12.4%.
For `Cc1ccc(OCC(=O)n2nc(C)cc2C)c(C)c1`, the “hERG current change (%, negative = inhibition) at 10uM” value was 10.2%.
`Cc1nn(C)c(C)c1S(=O)(=O)N(CC(=O)NC1CCCCCC1)c1ccc(C(C)C)cc1` was tested, and the “hERG current change (%, negative = inhibition) at 10uM” value was -10.4%.
For `Cc1ccn2cc(CNC(=O)c3cccs3)nc2c1`, the “hERG current change (%, negative = inhibition) at 10uM” value was 7.66%.
With `O=C(O)c1ccc(Cl)c(S(=O)(=O)Nc2ccccc2Cc2ccccc2)c1` the “hERG current change (%, negative = inhibition) at 10uM” value was 16.4%.
In the case of `CC(O)C(NS(=O)(=O)c1ccc(Cl)cc1)C(=O)OCc1nnc(-c2ccccc2)o1` (stereo not drawn), the “hERG current change (%, negative = inhibition) at 10uM” value is reported as -12.3%.
`O=C(CN(CC1CCCO1)C(=O)CNS(=O)(=O)c1ccc(F)cc1)NC1CCCC1` (stereo not drawn) was tested, and the “hERG current change (%, negative = inhibition) at 10uM” value was 4%.
